Data reported in publication PMC4336329 (PLoS ONE, 2015).
About 14,000 (4.5%) of roughly 310,000 compounds showed an effect of 50% or more. The effect is printed as a negative number. Some of the results follow.

target: human ether-à-go-go-related gene (hERG) potassium channel (human, UniProt Q12809); test: primary screen, population patch clamp on CHO cells stably expressing hERG
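Also: peak tail current of the secondary pulse compared with the same well before compound.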

Sequence of human ether-à-go-go-related gene (hERG) potassium channel (Q12809 whole entry, looked up): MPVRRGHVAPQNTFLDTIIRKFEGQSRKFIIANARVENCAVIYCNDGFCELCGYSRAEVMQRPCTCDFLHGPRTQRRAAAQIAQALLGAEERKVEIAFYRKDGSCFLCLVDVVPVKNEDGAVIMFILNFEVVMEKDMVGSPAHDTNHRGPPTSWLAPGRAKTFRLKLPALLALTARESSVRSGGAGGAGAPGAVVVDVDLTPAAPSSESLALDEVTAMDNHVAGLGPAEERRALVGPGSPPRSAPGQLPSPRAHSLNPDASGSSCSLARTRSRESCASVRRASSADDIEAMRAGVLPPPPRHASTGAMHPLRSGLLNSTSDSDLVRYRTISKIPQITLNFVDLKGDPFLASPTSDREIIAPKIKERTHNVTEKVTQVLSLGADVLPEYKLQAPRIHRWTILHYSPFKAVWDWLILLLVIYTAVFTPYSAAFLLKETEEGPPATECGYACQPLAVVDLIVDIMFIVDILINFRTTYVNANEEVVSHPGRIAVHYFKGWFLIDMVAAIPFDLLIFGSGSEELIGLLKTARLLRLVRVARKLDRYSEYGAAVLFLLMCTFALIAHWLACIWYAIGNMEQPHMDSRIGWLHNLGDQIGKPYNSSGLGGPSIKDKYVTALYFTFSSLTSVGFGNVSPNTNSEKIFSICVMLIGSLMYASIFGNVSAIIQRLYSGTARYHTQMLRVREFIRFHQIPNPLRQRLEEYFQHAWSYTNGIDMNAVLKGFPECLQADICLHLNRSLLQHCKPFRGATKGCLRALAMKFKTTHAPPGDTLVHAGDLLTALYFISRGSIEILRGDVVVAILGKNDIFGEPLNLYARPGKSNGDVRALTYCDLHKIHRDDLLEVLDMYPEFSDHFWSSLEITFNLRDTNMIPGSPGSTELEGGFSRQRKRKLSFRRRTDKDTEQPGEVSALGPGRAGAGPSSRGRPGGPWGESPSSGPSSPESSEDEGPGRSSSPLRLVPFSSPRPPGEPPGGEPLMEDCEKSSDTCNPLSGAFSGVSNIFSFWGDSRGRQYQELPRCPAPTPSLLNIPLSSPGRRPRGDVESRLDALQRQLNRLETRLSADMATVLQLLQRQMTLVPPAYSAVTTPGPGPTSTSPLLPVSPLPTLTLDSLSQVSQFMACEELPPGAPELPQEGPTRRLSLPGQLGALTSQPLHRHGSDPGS

In order of falling “hERG current change (%, negative = inhibition) at 10uM” value:
1. CCN(C(=O)CN1CCc2ccccc21)c1c(N)n(Cc2ccccc2)c(=O)[nH]c1=O  44.1%
2. CC(=O)Nc1c(O)nc(SCC(=O)Nc2nnc(SCc3ccccc3)s2)[nH]c1=O  23%
3. C/C(=N\NC(=O)CCCC(=O)O)c1c(-c2ccccc2)c2cc(Cl)ccc2[nH]c1=O  19.9%
4. CNC(=O)c1[nH]cnc1C(=O)N[C@@H](C)C(=O)OC(C)(C)C  19%
5. COc1ccc(S(=O)(=O)N2CCN(C(=O)N(C)C)C2C)cc1 (centres unmarked)  18.1%
6. O=C(Oc1ccc(Br)cc1C(=S)N1CCOCC1)c1cccc([N+](=O)[O-])c1  17.4%
7. COc1ccc(S(=O)(=O)N(Cc2ccco2)Cc2cc3ccccc3[nH]c2=O)cc1  16.6%
8. Cn1cc(Br)c(C(=O)Nc2sc3c(c2C#N)CCC3)n1  15.2%
9. COc1ccc(-n2c(SCC(=O)Nc3ccc(NC(C)=O)cc3)nc3c([nH]c4ccccc43)c2=O)cc1OC  14.5%
10. O=C(COC(=O)CCCN=C1NS(=O)(=O)c2ccccc21)NNC(=O)c1ccccc1  14.2%
11. CCOC(=O)N/N=C/c1cn(Cc2ccc(Cl)cc2)c2ccccc12  14.1%
12. O=C(CCC(=O)c1ccccc1)Nc1ccc(C(=O)O)cc1  13.8%
13. COC(=O)C1=C(C)N(CCCC(=O)O)C(=O)NC1c1cccs1 (centres unmarked)  13.1%
14. Cc1ccc(S(=O)(=O)N2CCCOC2CNC(=O)C(=O)NCc2ccccc2C)cc1 (centres unmarked)  12.6%
15. CC(C)(C)S(=O)(=O)c1ccsc1C(=O)O  12.5%
16. COC(=O)c1ccc(/C=N\NC(=O)c2ccc(C)cc2Cl)cc1  11.6%
17. COc1ccc(/C=N/NC(=O)C(=O)N2CCCC2)cc1  11.2%
18. CCOC(=O)c1c(C)nc2sc3c(=O)n(-c4ccc(C(C)=O)cc4)cnc3c2c1-c1ccc(Cl)cc1  10.8%
19. O=C(NN1C(=O)c2ccccc2C1=O)c1ccncc1  10.4%
20. CCOC(=O)/C(=C\c1ccc(Cl)cc1)c1nc2sc(C)c(C)c2c(=O)[nH]1  9.78%
21. CC(C)(C)c1nc2ccccc2[nH]1  7.06%
22. COc1ccc(C2CC(=O)C(C=NCCN3CCOCC3)=C(O)C2)cc1 (centres unmarked)  6.95%
23. Cc1ccc(S(=O)(=O)N/N=C2/CC(c3ccccc3)Oc3ccccc32)cc1[N+](=O)[O-] (centres unmarked)  6.02%
24. CCCOc1ccc(C(=O)Nc2ccccc2[N+](=O)[O-])cc1  5.49%
25. COc1ccc(NC(=O)CN(C)C(=O)C(C)Sc2ccccc2)cc1 (centres unmarked)  5.43%
26. O=C(COC(=O)c1ccccc1NS(=O)(=O)c1cccs1)NCC12CC3CC(CC(C3)C1)C2  5.15%
27. Cc1noc(C)c1C(=O)Nc1c(F)cc(F)cc1Br  3.24%
28. CCOc1ccc2cc(C3CC(c4ccco4)=NN3S(=O)(=O)c3ccccc3)c(Cl)nc2c1 (centres unmarked)  3.09%
29. O=C1c2oc3ccccc3c(=O)c2C(c2cccs2)N1CCCN1CCOCC1 (centres unmarked)  3.06%
30. Cc1ccc(-c2cc(C(=O)N3CCN(c4ncccn4)CC3)c3cc(Br)ccc3n2)o1  2.67%
31. O=C(Nc1ccc(N2CCOCC2)cc1N1CCOCC1)c1ccc([N+](=O)[O-])cc1  2.51%
32. CCn1c(C)c(C)c2cc(C(=O)NCCCN3CCCC3)ccc21  2.38%
33. Cc1cc(=O)oc(C)c1C(=O)NC1CCCCCCC1  1.65%
34. CC(C)Oc1ccc(CCC(=O)N/N=C/c2ccncc2)cc1  0.414%
35. COc1ccc(C(=O)N(CN2CCCC2=O)c2ccc(C)cc2)cc1  0.0531%
36. CC(C(=O)Nc1ccc(S(=O)(=O)N2CCCC2)cc1)N1CCc2ccccc2C1 (centres unmarked)  -0.0671%
37. Cc1nnc(N2CCN(c3ccccc3)CC2)[nH]c1=O  -0.0754%
38. COc1ccc2nc3ccccc3nc2c1  -0.194%
39. COc1cc(-c2nn3c(-c4ccccc4)nnc3s2)cc(OC)c1OC  -0.504%
40. Cn1ncc(Cl)c1C(=O)Nc1ccc(Cl)cn1  -0.844%
41. O=S(=O)(c1ccc(Br)cc1)N1CCC2(CC1)OCCO2  -4.39%
42. CCS(=O)(=O)N1Cc2ccccc2CC1C(=O)Nc1cccc(C)c1 (centres unmarked)  -4.95%
43. O=C(CNS(=O)(=O)c1ccc(Br)s1)NCc1ccc(F)cc1  -6.05%
44. CCNc1nc(Oc2ccc(C(=O)OCC)cc2)nc(N2CCOCC2)n1  -6.59%
45. CCc1ccc(NC(=O)C2=CC(c3cccs3)=NS(=O)(=O)N2C)cc1  -8.4%
46. CCOc1ccc(/C=C/[N+](=O)[O-])c2ccccc12  -8.67%
47. CCOC(=O)c1ccc(N2C(=O)CC(N3CCC(C(=O)OCC)CC3)C2=O)cc1 (centres unmarked)  -8.81%
48. COc1ccc([N+](=O)[O-])cc1NC(=O)C1(c2ccccc2)CCOCC1  -17.4%
49. COc1ccc(C2C3=C(CCCC3=O)Nc3nc(SCc4ccccc4)nn32)cc1OC (centres unmarked)  -17.9%
50. C/C(=N/NC(=O)c1ccc(C)nc1)c1ccc2c(c1)CCCC2  -19.1%
51. O=C(Cc1ccc(-n2c(=O)c3ccccc3n(Cc3ccc(F)cc3)c2=O)cc1)NCC1CCCO1 (centres unmarked)  -19.6%
52. COCCCNc1nc2nonc2nc1N1CCN(C2CCCC2)CC1  -20.2%
53. COC(=O)c1cc(N2CCN(C)CC2)nc2ccccc12.Cl  -21.9%
54. Cc1cc(N2CCCCC2)ccc1[N+](=O)[O-]  -24.3%
55. O=C(NC1CC2CCCC(C1)N2Cc1ccco1)NC12CC3CC(CC(C3)C1)C2 (centres unmarked)  -46.8%
56. CCNC(=S)N1CCN(Cc2ccccc2)CC1.O=C(O)C(=O)O  -59.9%
